Measurements reported in the supplement of paper PMC3694890.
± gives the uncertainty stated by the source. Some of the results follow. A small y stands for phosphotyrosine.

Molecular target: GRB2 (endogenous complexes from cell lysate), P62993
Assay: GRB2 complex binding differential signal (pY peptide minus Ala control peptide) (fluorescence intensity units); higher = stronger GRB2 complex binding
Description: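 In situ synthesized µParaflo PepArray of 6-mer peptides, each starting with an N-terminal phosphotyrosine (lowercase 'y' = pY) followed by 5 native residues. Peptides are tethered to glass through a long linker. Chips were incubated overnight at 4°C with total cell lysate (1 mg in 1 mL) from MCF10A, MCF7, T47D or MDA-MB-231 cells. Bound endogenous GRB2-containing complexes were detected with rabbit anti-GRB2 and an Alexa647 secondary antibody. Signals are background-subtracted and averaged over replicate spots, then the matched Ala-substituted control peptide signal is subtracted (differential signal).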
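Also: phosphopeptide probes on the chip at 1–4 µM, lysate proteins bound in 20 mM Tris pH 7.0 buffer with 140 mM NaCl, 1% Triton X-100 and 5% glycerol.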

| Binder | GRB2 complex binding differential signal (MCF7) | GRB2 complex binding differential signal (MCF10A) | GRB2 complex binding differential signal (MDA-MB-231) | GRB2 complex binding differential signal (T47D) |
| --- | --- | --- | --- | --- |
| yVTAES [ABL2_231/A1] | 2940 ± 760 | 2470 ± 440 | 1140 ± 410 | 1200 ± 1100 |
| yDGIPA [EGFR_915/A1] | 1340 ± 810 | 1000 ± 270 | 622 ± 420 | 1580 ± 1200 |
| yEMEED [EGFR_316/A1] | 141 ± 260 | 110 ± 370 | 121 ± 230 | 294 ± 1000 |
| yQQDFF [EGFR_1172/A1] | 260 ± 600 | 392 ± 320 | 955 ± 400 | 2540 ± 1200 |
| yRALMD [EGFR_998/A1] | 2790 ± 2200 | 940 ± 310 | 799 ± 380 | 2080 ± 1400 |
| ySSDPT [EGFR_1069/A1] | 2640 ± 920 | 2380 ± 1100 | 1880 ± 400 | 1340 ± 1100 |
| yLRVAP [EGFR_1197/A1] | 1970 ± 790 | 532 ± 1700 | 767 ± 440 | 531 ± 1500 |
| yNPTTY [EGFR_270/A1] | -1590 ± 740 | 62.4 ± 410 | 142 ± 250 | 356 ± 1200 |
| yHNQPL [EGFR_1110/A1] | 19500 ± 4300 | 11800 ± 1300 | 1910 ± 500 | 7820 ± 2800 |
| yMIMVK [EGFR_944/A1] | 865 ± 1000 | 445 ± 300 | 617 ± 290 | 952 ± 1300 |
| yLNTVQ [EGFR_1138/A1] | 16700 ± 3400 | 27800 ± 6300 | 8510 ± 1700 | -3170 ± 8800 |
| yVMASV [EGFR_764/A1] | 742 ± 1100 | 758 ± 250 | 1440 ± 440 | 2660 ± 1000 |
| yQDPHS [EGFR_1125/A1] | 8050 ± 1600 | 6280 ± 1800 | 1600 ± 520 | 1720 ± 1200 |
| yKGLWI [EGFR_727/A1] | -61.6 ± 260 | 253 ± 860 | 449 ± 310 | 616 ± 1400 |
| yINQSV [EGFR_1092/A1] | 52800 ± 6800 | 16200 ± 16000 | 6590 ± 850 | 22200 ± 4000 |
| yHAEGG [EGFR_869/A1] | 1100 ± 320 | 1070 ± 1100 | 678 ± 420 | 1160 ± 1300 |
| yLVIQG [EGFR_978/A1] | 36.4 ± 220 | 163 ± 340 | 634 ± 1100 | 513 ± 1100 |
